± gives the standard deviation of the averaged measurements. Laboratory Escherichia coli strains with one amino-acid change in an essential protein, pooled on minimal glucose agar with carbenicillin or gentamicin at twice the control MIC (plus kanamycin and chloramphenicol for the plasmids), 48 h. Fold change of barcode share against drug-free plates; higher = less susceptible. Active = above 20 in both replicates (the paper's putatively resistant). '<' = one read or none on drug, '>' = one read or none on a drug-free plate. Shares are relative, so most strains fall below 1 when a few take over. Listed are strains with at least 15 reads on both drug-free plates, and hits; most hits rest on fewer reference reads. Replicate rank correlation about 0.5. Edits are read from barcodes.
B1: psd V86A (protein)
chain: MLNSFKLSLQYILPKLWLTRLAGWGASKRAGWLTKLVIDLFVKYYKVDMKEAQKPDTASYRTFNEFFVRPLRDEVRPIDTDPNVLAMPADGVISQLGKIEEDKILQAKGHNYSLEALLAGNYLMADLFRNGTFVTTYLSPRDYHRVHMPCNGILREMIYVPGDLFSVNHLTAQNVPNLFARNERVICLFDTEFGPMAQILVGATIVGSIETVWAGTITPPREGIIKRWTWPAGENDGSVALLKGQEMGRFKLGSTVINLFAPGKVNLVEQLESLSVTKIGQPLAVSTETFVTPDAEPAPLPAEEIEAEHDASPLVDDKKDQV
B2: psd V86W (protein)
chain: MLNSFKLSLQYILPKLWLTRLAGWGASKRAGWLTKLVIDLFVKYYKVDMKEAQKPDTASYRTFNEFFVRPLRDEVRPIDTDPNVLWMPADGVISQLGKIEEDKILQAKGHNYSLEALLAGNYLMADLFRNGTFVTTYLSPRDYHRVHMPCNGILREMIYVPGDLFSVNHLTAQNVPNLFARNERVICLFDTEFGPMAQILVGATIVGSIETVWAGTITPPREGIIKRWTWPAGENDGSVALLKGQEMGRFKLGSTVINLFAPGKVNLVEQLESLSVTKIGQPLAVSTETFVTPDAEPAPLPAEEIEAEHDASPLVDDKKDQV
B3: psd L96P (protein)
chain: MLNSFKLSLQYILPKLWLTRLAGWGASKRAGWLTKLVIDLFVKYYKVDMKEAQKPDTASYRTFNEFFVRPLRDEVRPIDTDPNVLVMPADGVISQPGKIEEDKILQAKGHNYSLEALLAGNYLMADLFRNGTFVTTYLSPRDYHRVHMPCNGILREMIYVPGDLFSVNHLTAQNVPNLFARNERVICLFDTEFGPMAQILVGATIVGSIETVWAGTITPPREGIIKRWTWPAGENDGSVALLKGQEMGRFKLGSTVINLFAPGKVNLVEQLESLSVTKIGQPLAVSTETFVTPDAEPAPLPAEEIEAEHDASPLVDDKKDQV
B4: psd L96Q (protein)
chain: MLNSFKLSLQYILPKLWLTRLAGWGASKRAGWLTKLVIDLFVKYYKVDMKEAQKPDTASYRTFNEFFVRPLRDEVRPIDTDPNVLVMPADGVISQQGKIEEDKILQAKGHNYSLEALLAGNYLMADLFRNGTFVTTYLSPRDYHRVHMPCNGILREMIYVPGDLFSVNHLTAQNVPNLFARNERVICLFDTEFGPMAQILVGATIVGSIETVWAGTITPPREGIIKRWTWPAGENDGSVALLKGQEMGRFKLGSTVINLFAPGKVNLVEQLESLSVTKIGQPLAVSTETFVTPDAEPAPLPAEEIEAEHDASPLVDDKKDQV
B5: psd V134W (protein)
chain: MLNSFKLSLQYILPKLWLTRLAGWGASKRAGWLTKLVIDLFVKYYKVDMKEAQKPDTASYRTFNEFFVRPLRDEVRPIDTDPNVLVMPADGVISQLGKIEEDKILQAKGHNYSLEALLAGNYLMADLFRNGTFWTTYLSPRDYHRVHMPCNGILREMIYVPGDLFSVNHLTAQNVPNLFARNERVICLFDTEFGPMAQILVGATIVGSIETVWAGTITPPREGIIKRWTWPAGENDGSVALLKGQEMGRFKLGSTVINLFAPGKVNLVEQLESLSVTKIGQPLAVSTETFVTPDAEPAPLPAEEIEAEHDASPLVDDKKDQV
B6: psd L96A (protein)
chain: MLNSFKLSLQYILPKLWLTRLAGWGASKRAGWLTKLVIDLFVKYYKVDMKEAQKPDTASYRTFNEFFVRPLRDEVRPIDTDPNVLVMPADGVISQAGKIEEDKILQAKGHNYSLEALLAGNYLMADLFRNGTFVTTYLSPRDYHRVHMPCNGILREMIYVPGDLFSVNHLTAQNVPNLFARNERVICLFDTEFGPMAQILVGATIVGSIETVWAGTITPPREGIIKRWTWPAGENDGSVALLKGQEMGRFKLGSTVINLFAPGKVNLVEQLESLSVTKIGQPLAVSTETFVTPDAEPAPLPAEEIEAEHDASPLVDDKKDQV
B7: psd I257A (protein)
chain: MLNSFKLSLQYILPKLWLTRLAGWGASKRAGWLTKLVIDLFVKYYKVDMKEAQKPDTASYRTFNEFFVRPLRDEVRPIDTDPNVLVMPADGVISQLGKIEEDKILQAKGHNYSLEALLAGNYLMADLFRNGTFVTTYLSPRDYHRVHMPCNGILREMIYVPGDLFSVNHLTAQNVPNLFARNERVICLFDTEFGPMAQILVGATIVGSIETVWAGTITPPREGIIKRWTWPAGENDGSVALLKGQEMGRFKLGSTVANLFAPGKVNLVEQLESLSVTKIGQPLAVSTETFVTPDAEPAPLPAEEIEAEHDASPLVDDKKDQV
B8: psd V86Q (protein)
chain: MLNSFKLSLQYILPKLWLTRLAGWGASKRAGWLTKLVIDLFVKYYKVDMKEAQKPDTASYRTFNEFFVRPLRDEVRPIDTDPNVLQMPADGVISQLGKIEEDKILQAKGHNYSLEALLAGNYLMADLFRNGTFVTTYLSPRDYHRVHMPCNGILREMIYVPGDLFSVNHLTAQNVPNLFARNERVICLFDTEFGPMAQILVGATIVGSIETVWAGTITPPREGIIKRWTWPAGENDGSVALLKGQEMGRFKLGSTVINLFAPGKVNLVEQLESLSVTKIGQPLAVSTETFVTPDAEPAPLPAEEIEAEHDASPLVDDKKDQV
B9: psd V256Q (protein)
chain: MLNSFKLSLQYILPKLWLTRLAGWGASKRAGWLTKLVIDLFVKYYKVDMKEAQKPDTASYRTFNEFFVRPLRDEVRPIDTDPNVLVMPADGVISQLGKIEEDKILQAKGHNYSLEALLAGNYLMADLFRNGTFVTTYLSPRDYHRVHMPCNGILREMIYVPGDLFSVNHLTAQNVPNLFARNERVICLFDTEFGPMAQILVGATIVGSIETVWAGTITPPREGIIKRWTWPAGENDGSVALLKGQEMGRFKLGSTQINLFAPGKVNLVEQLESLSVTKIGQPLAVSTETFVTPDAEPAPLPAEEIEAEHDASPLVDDKKDQV
B10: psd V86D (protein)
chain: MLNSFKLSLQYILPKLWLTRLAGWGASKRAGWLTKLVIDLFVKYYKVDMKEAQKPDTASYRTFNEFFVRPLRDEVRPIDTDPNVLDMPADGVISQLGKIEEDKILQAKGHNYSLEALLAGNYLMADLFRNGTFVTTYLSPRDYHRVHMPCNGILREMIYVPGDLFSVNHLTAQNVPNLFARNERVICLFDTEFGPMAQILVGATIVGSIETVWAGTITPPREGIIKRWTWPAGENDGSVALLKGQEMGRFKLGSTVINLFAPGKVNLVEQLESLSVTKIGQPLAVSTETFVTPDAEPAPLPAEEIEAEHDASPLVDDKKDQV
B11: psd L96W (protein)
chain: MLNSFKLSLQYILPKLWLTRLAGWGASKRAGWLTKLVIDLFVKYYKVDMKEAQKPDTASYRTFNEFFVRPLRDEVRPIDTDPNVLVMPADGVISQWGKIEEDKILQAKGHNYSLEALLAGNYLMADLFRNGTFVTTYLSPRDYHRVHMPCNGILREMIYVPGDLFSVNHLTAQNVPNLFARNERVICLFDTEFGPMAQILVGATIVGSIETVWAGTITPPREGIIKRWTWPAGENDGSVALLKGQEMGRFKLGSTVINLFAPGKVNLVEQLESLSVTKIGQPLAVSTETFVTPDAEPAPLPAEEIEAEHDASPLVDDKKDQV
B12: psd V256A (protein)
chain: MLNSFKLSLQYILPKLWLTRLAGWGASKRAGWLTKLVIDLFVKYYKVDMKEAQKPDTASYRTFNEFFVRPLRDEVRPIDTDPNVLVMPADGVISQLGKIEEDKILQAKGHNYSLEALLAGNYLMADLFRNGTFVTTYLSPRDYHRVHMPCNGILREMIYVPGDLFSVNHLTAQNVPNLFARNERVICLFDTEFGPMAQILVGATIVGSIETVWAGTITPPREGIIKRWTWPAGENDGSVALLKGQEMGRFKLGSTAINLFAPGKVNLVEQLESLSVTKIGQPLAVSTETFVTPDAEPAPLPAEEIEAEHDASPLVDDKKDQV
B13: psd V86P (protein)
chain: MLNSFKLSLQYILPKLWLTRLAGWGASKRAGWLTKLVIDLFVKYYKVDMKEAQKPDTASYRTFNEFFVRPLRDEVRPIDTDPNVLPMPADGVISQLGKIEEDKILQAKGHNYSLEALLAGNYLMADLFRNGTFVTTYLSPRDYHRVHMPCNGILREMIYVPGDLFSVNHLTAQNVPNLFARNERVICLFDTEFGPMAQILVGATIVGSIETVWAGTITPPREGIIKRWTWPAGENDGSVALLKGQEMGRFKLGSTVINLFAPGKVNLVEQLESLSVTKIGQPLAVSTETFVTPDAEPAPLPAEEIEAEHDASPLVDDKKDQV
B14: psd V134Q (protein)
chain: MLNSFKLSLQYILPKLWLTRLAGWGASKRAGWLTKLVIDLFVKYYKVDMKEAQKPDTASYRTFNEFFVRPLRDEVRPIDTDPNVLVMPADGVISQLGKIEEDKILQAKGHNYSLEALLAGNYLMADLFRNGTFQTTYLSPRDYHRVHMPCNGILREMIYVPGDLFSVNHLTAQNVPNLFARNERVICLFDTEFGPMAQILVGATIVGSIETVWAGTITPPREGIIKRWTWPAGENDGSVALLKGQEMGRFKLGSTVINLFAPGKVNLVEQLESLSVTKIGQPLAVSTETFVTPDAEPAPLPAEEIEAEHDASPLVDDKKDQV

Target: Escherichia coli (laboratory strain)
Assay: barcode share on antibiotic plates over drug-free plates; higher = less susceptible
Description: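 A pool of E. coli strains, each edited to carry one amino-acid change in an essential protein, was grown for 48 h on minimal glucose agar with or without antibiotic; strain barcodes were sequenced; mean of two replicates.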

[1] = antibiotic: carbenicillin, 2× MIC (3.1 µg/mL)
[2] = antibiotic: gentamicin, 2× MIC (MIC 0.45 µg/mL)

| Protein | fold change of barcode share [1] | fold change of barcode share [2] |
| --- | --- | --- |
| B1 | 0.222 ± 0.1 | < 0.00838 |
| B2 | 0.264 ± 0.087 | 0.00554 ± 0.0024 |
| B3 | 0.271 ± 0.1 | < 0.00822 |
| B4 | 0.466 ± 0.31 | < 0.0127 |
| B5 | 0.265 ± 0.1 | < 0.0117 |
| B6 | 0.266 ± 0.018 | < 0.00557 |
| B7 | 0.453 ± 0.13 | 0.0261 ± 0.0026 |
| B8 | 0.354 ± 0.12 | < 0.00301 |
| B9 | 0.484 ± 0.017 | 0.00883 ± 0.009 |
| B10 | 0.202 ± 0.081 | < 0.00447 |
| B11 | 0.836 ± 0.085 | 0.0156 ± 0.013 |
| B12 | 0.33 ± 0.05 | 0.00351 ± 0.0013 |
| B13 | 0.351 ± 0.11 | < 0.0105 |
| B14 | 0.587 ± 0.22 | < 0.00841 |

Source: the supplement of paper PMC11876631
